One molecule from patent US20210054095A1 (PHILOGEN S P A, published 2021) can be followed below.

The target in assay [1] is carbonic anhydrase IX (CAIX) as expressed on SKRC52 human renal cell carcinoma cells, SKRC52 tumour sections … (human, UniProt Q16790). In words: flow cytometry on SKRC52 cells, conjugate at 10 ug/mL, detected with rat anti-IL2 and anti-rat AlexaFluor488. Here is the method: Antigen expression on SKRC52 cells was confirmed by flow cytometry. Cells were centrifuged and washed in cold FACS buffer (0.5% BSA, 2 mM EDTA in PBS) and stained with hIL2-XE114-hTNF^mut conjugate (final concentration 10 μg/mL) and detected with rat anti-IL2 followed by staining with anti-rat AlexaFluor488. IL2-KSF-TNF^mut (specific for an irrelevant antigen) was used as a negative control.
Background: In flow cytometry, cells or beads pass a laser one at a time.

Assay [2] has as its target extracellular domain of CAIX coated on an SA chip (Example 3) (human, UniProt Q16790 part only). Briefly: SPR (BIAcore X100), CAIX-coated SA chip, conjugate injected as serial dilutions. Here is the method:
Affinity measurements were performed by surface plasmon resonance using BIAcore X100 instrument using a CAIX coated SA chip. Samples were injected as serial-dilutions, in a concentration range from 1 mM to 62.5 nM. Regeneration of the chip was performed by HCl 10 mM.
In general terms: Surface plasmon resonance follows binding to a sensor surface in real time, without labels.

B1: hIL2-XE114-hTNFmut conjugate (without the glycosylation motif) (other)
chain: [about 150 residues not shown]GDGSSGGSGGASEVQLLESGGGLVQPGGSLRLSCAASGFTFSSYAMSWVRQAPGKGLEWVSAIDGSGGSTYYADSVKGRFTISRDNSKNTLYLQMNSLRAEDTAVYYCVKGPPVFDYWGQGTLVTVSSGGGGSGGGGSGGGGSSELTQDPAVSVALGQTVRITCQGDSLRSYYASWYQQKPGQAPVLVIYGKNNRPSGIPDRFSGSSSGNTASLTITGAQAEDEADYYCQSSKWSWDPVVFGGGTKLTVLGSSSSGSSSSGSSSSG[about 150 residues not shown]
notes: Fusion of human IL2, linker, XE114 scFv (VL N88Q), linker and human TNF (R32A)
B1: the binding result in assay [1] and in assay [2] was “binds” throughout.
